Data on 10 molecules can be found in patent US20060234955A1, “Cardiac glycosides to treat cystic fibrosis and other il-8 dependent disorders” (priority 2002, published 2006).

The test deals with IL-8 secretion from cystic fibrosis epithelial cell line IB-3. To be noted: for ID50: inhibition of IL-8 secretion from cystic fibrosis epithelial cell line IB-3, 48 hour incubation.

Bounds are passed on as bounds.

`CC(=O)O[C@H]1CC[C@@]2(C)[C@H](CC[C@@H]3[C@@H]2C[C@@H](OC(C)=O)[C@]2(C)[C@@H](C4=CC(=O)OC4)CC[C@]32O)C1` (single isomer, unassigned; diac) [VIII, digoxingenin, 3,12-diAc]: the “ID50” value is greater than 1000 nM. Further, where the note is “concentration of 1000 nM (1 micromolar)”, the “activity on IL-8 secretion at 1000 nM” value was “entirely inactive”.

In the case of `CCCn1c(=O)c2[nH]c(C3CCCC3)nc2n(CCC)c1=O` [CPX, 1,3-Dipropyl-8-Cyclopentyl xanthine, reference compound], the “IL-8 secretion by IB3 cells” value is “suppressed”.

As to `C[C@@H]1O[C@@H](O[C@H]2C[C@@H](O)[C@]3(CO)[C@H]4[C@H](O)C[C@]5(C)[C@@H](C6=CC(=O)OC6)CC[C@]5(O)[C@@H]4CC[C@]3(O)C2)[C@H](O)[C@H](O)[C@H]1O` [Compound IV, ouabain, reference compound], the “ID50” value came out at 8.0 nM.

Regarding `CO[C@H]1C[C@H](O[C@H]2CC[C@@]3(C)[C@H](CC[C@@H]4[C@@H]3CC[C@]3(C)[C@@H](C5=CC(=O)OC5)[C@@H](OC(C)=O)C[C@]43O)C2)O[C@@H](C)[C@@H]1O` [Compound I], the “ID50” value is 1.0 nM.

Take `C[C@H]1O[C@@H](O[C@H]2[C@@H](O)C[C@H](O[C@H]3[C@@H](O)C[C@H](O[C@H]4CC[C@@]5(C)[C@H](CC[C@@H]6[C@@H]5CC[C@]5(C)[C@@H](C7=CC(=O)OC7)CC[C@]65O)C4)O[C@@H]3C)O[C@@H]2C)C[C@H](O)[C@@H]1O` [II, digitoxin, reference compound]: the “ID50” value stood at 1.3 nM.

On to `C[C@H]1O[C@@H](O[C@H]2[C@@H](O)C[C@H](O[C@H]3[C@@H](O)C[C@H](O[C@H]4CC[C@@]5(C)[C@H](CC[C@@H]6[C@@H]5C[C@@H](O)[C@]5(C)[C@@H](C7=CC(=O)OC7)CC[C@]65O)C4)O[C@@H]3C)O[C@@H]2C)C[C@H](O)[C@@H]1O` [III, digoxin, reference compound], for which the “ID50” value is listed as 5.4 nM.

As for `CCNC` [MEA, methyl-ethylamine, reference compound], the “IL-8 secretion by IB3 cells” value is reported as “suppressed”.

Take `C[C@]12CC[C@H](O)C[C@H]1CC[C@@H]1[C@@H]2C[C@@H](O)[C@]2(C)[C@@H](C3=CC(=O)OC3)CC[C@]12O` [V, digoxigenin]: the “ID50” value was 17.0 nM.

In the case of `C[C@]12CC[C@H](O)C[C@H]1CC[C@@H]1[C@@H]2CC[C@]2(C)[C@@H](C3=CC(=O)OC3)CC[C@]12O` [VI, digitoxigenin], the “ID50” value was 25.0 nM.

As for `CC(=O)O[C@H]1CC[C@]2(C=O)[C@H]3CC[C@]4(C)[C@@H](C5=CC(=O)OC5)CC[C@]4(O)[C@@H]3CC[C@]2(O)C1` [VII, acetyl-stropanthidin], the “ID50” value turned out to be 60 nM.
